According to PMC12820563, “FoxP3 forms a head-to-head dimer in vivo and stabilizes its multimerization on adjacent microsatellites”:
The list shows a part of the results.

The sequences below were run against T1, MBP-FoxP1dN (Mus musculus, UniProt P58462 326-579) (assay: PD-seq (MBP pull-down with sequencing); 20 mM Tris-HCl pH 7.5, 100 mM NaCl, 1.5 mM MgCl2, 0.4 uM protein, 0.1 uM dsDNA library, 30 min, room temperature, amylose pull-down; high values mean tight binding). Details: protein: recombinant; tags: His6-MBP; chain copies: 2; dsDNA, one strand shown.
T1 sequence: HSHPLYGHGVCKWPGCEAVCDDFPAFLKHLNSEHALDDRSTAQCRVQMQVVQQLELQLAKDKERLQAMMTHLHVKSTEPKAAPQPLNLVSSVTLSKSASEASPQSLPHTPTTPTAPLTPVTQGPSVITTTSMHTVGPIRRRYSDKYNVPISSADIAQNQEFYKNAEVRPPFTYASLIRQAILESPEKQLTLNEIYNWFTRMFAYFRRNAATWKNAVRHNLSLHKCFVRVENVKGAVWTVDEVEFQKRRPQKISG
In short: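 Mouse FoxP3 or FoxP1 fragment lacking the N-terminus, His6-MBP-tagged and expressed in E. coli, was incubated at 0.4 µM with 0.1 µM Klenow-filled degenerate double-stranded DNA library for 30 min at room temperature in Tris pH 7.5 buffer with NaCl and MgCl2. Complexes captured on amylose resin were washed three times and their DNA sequenced on Illumina. Binding is reads-per-million enrichment of pull-down over input, replicates pooled.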
In the case of “GATGATTGTTCTCCCAGCTGATGAATTTCAACACTCGAGTAAACAAATTTTCCTAATCTTTCTGTTCAAGCGCCATCTAC”, the binding signal is reported as 0.901 RPM ratio (pull-down/input). In the case of “GATGATTGTTCTCCCAGCTGATGAATTTTAAAGATCGAGTAAACAAATTTTCCTAATCTTTCTGTTCAAGCGCCATCTAC”, the binding signal is reported as 0.92 RPM ratio (pull-down/input). For “GATGATTGTTCTCCCAGCTGATGAATTGCCCTGGTCGAGTAAACAAATTTTCCTAATCTTTCTGTTCAAGCGCCATCTAC”, the binding signal was 0.807 RPM ratio (pull-down/input). In the case of “GATGATTGTTCTCCCAGCTGATGAATTTAGAAAATCGAGTAAACAAATTTTCCTAATCTTTCTGTTCAAGCGCCATCTAC”, the binding signal is reported as 1.24 RPM ratio (pull-down/input). With “GATGATTGTTCTCCCAGCTGATGAATTGTCGCTCTCGAGTAAACAAATTTTCCTAATCTTTCTGTTCAAGCGCCATCTAC” the binding signal was 0.972 RPM ratio (pull-down/input). In the case of “GATGATTGTTCTCCCAGCTGATGAATTCCTATGCTCGAGTAAACAAATTTTCCTAATCTTTCTGTTCAAGCGCCATCTAC”, the binding signal is reported as 0.836 RPM ratio (pull-down/input). In the case of “GATGATTGTTCTCCCAGCTGATGAATTTGGTCGATCGAGTAAACAAATTTTCCTAATCTTTCTGTTCAAGCGCCATCTAC”, the binding signal is reported as 0.857 RPM ratio (pull-down/input). With “GATGATTGTTCTCCCAGCTGATGAATTCACCATGTCGAGTAAACAAATTTTCCTAATCTTTCTGTTCAAGCGCCATCTAC” the binding signal was 0.834 RPM ratio (pull-down/input). With “GATGATTGTTCTCCCAGCTGATGAATTGGCAGTATCGAGTAAACAAATTTTCCTAATCTTTCTGTTCAAGCGCCATCTAC” the binding signal was 0.94 RPM ratio (pull-down/input). “GATGATTGTTCTCCCAGCTGATGAATTAGGATGTTCGAGTAAACAAATTTTCCTAATCTTTCTGTTCAAGCGCCATCTAC” was tested, and the binding signal was 0.951 RPM ratio (pull-down/input). With “GATGATTGTTCTCCCAGCTGATGAATTTACGTACTCGAGTAAACAAATTTTCCTAATCTTTCTGTTCAAGCGCCATCTAC” the binding signal was 1.31 RPM ratio (pull-down/input). In the case of “GATGATTGTTCTCCCAGCTGATGAATTCGTTTTATCGAGTAAACAAATTTTCCTAATCTTTCTGTTCAAGCGCCATCTAC”, the binding signal is reported as 0.925 RPM ratio (pull-down/input). In the case of “GATGATTGTTCTCCCAGCTGATGAATTGCGGGCATCGAGTAAACAAATTTTCCTAATCTTTCTGTTCAAGCGCCATCTAC”, the binding signal is reported as 1.16 RPM ratio (pull-down/input). In the case of “GATGATTGTTCTCCCAGCTGATGAATTACGTCGTTCGAGTAAACAAATTTTCCTAATCTTTCTGTTCAAGCGCCATCTAC”, the binding signal is reported as 0.997 RPM ratio (pull-down/input). In the case of “GATGATTGTTCTCCCAGCTGATGAATTTTAGATTTCGAGTAAACAAATTTTCCTAATCTTTCTGTTCAAGCGCCATCTAC”, the binding signal is reported as 0.909 RPM ratio (pull-down/input). In the case of “GATGATTGTTCTCCCAGCTGATGAATTTTTTATCTCGAGTAAACAAATTTTCCTAATCTTTCTGTTCAAGCGCCATCTAC”, the binding signal is reported as 0.997 RPM ratio (pull-down/input). In the case of “GATGATTGTTCTCCCAGCTGATGAATTGTTACACTCGAGTAAACAAATTTTCCTAATCTTTCTGTTCAAGCGCCATCTAC”, the binding signal is reported as 1.43 RPM ratio (pull-down/input). With “GATGATTGTTCTCCCAGCTGATGAATTAAGACAGTCGAGTAAACAAATTTTCCTAATCTTTCTGTTCAAGCGCCATCTAC” the binding signal was 0.806 RPM ratio (pull-down/input). With “GATGATTGTTCTCCCAGCTGATGAATTGTTTGACTCGAGTAAACAAATTTTCCTAATCTTTCTGTTCAAGCGCCATCTAC” the binding signal was 1.17 RPM ratio (pull-down/input). For “GATGATTGTTCTCCCAGCTGATGAATTAGGAGGCTCGAGTAAACAAATTTTCCTAATCTTTCTGTTCAAGCGCCATCTAC”, the binding signal was 0.948 RPM ratio (pull-down/input). In the case of “GATGATTGTTCTCCCAGCTGATGAATTCCGGACGTCGAGTAAACAAATTTTCCTAATCTTTCTGTTCAAGCGCCATCTAC”, the binding signal is reported as 0.776 RPM ratio (pull-down/input). In the case of “GATGATTGTTCTCCCAGCTGATGAATTTACTGGCTCGAGTAAACAAATTTTCCTAATCTTTCTGTTCAAGCGCCATCTAC”, the binding signal is reported as 0.992 RPM ratio (pull-down/input). With “GATGATTGTTCTCCCAGCTGATGAATTGCTGTAATCGAGTAAACAAATTTTCCTAATCTTTCTGTTCAAGCGCCATCTAC” the binding signal was 1.51 RPM ratio (pull-down/input). With “GATGATTGTTCTCCCAGCTGATGAATTGATATCGTCGAGTAAACAAATTTTCCTAATCTTTCTGTTCAAGCGCCATCTAC” the binding signal was 1.2 RPM ratio (pull-down/input). “GATGATTGTTCTCCCAGCTGATGAATTGGATCGCTCGAGTAAACAAATTTTCCTAATCTTTCTGTTCAAGCGCCATCTAC” was tested, and the binding signal was 0.797 RPM ratio (pull-down/input). With “GATGATTGTTCTCCCAGCTGATGAATTAGACCTATCGAGTAAACAAATTTTCCTAATCTTTCTGTTCAAGCGCCATCTAC” the binding signal was 0.894 RPM ratio (pull-down/input). “GATGATTGTTCTCCCAGCTGATGAATTTTTTTTTTCGAGTAAACAAATTTTCCTAATCTTTCTGTTCAAGCGCCATCTAC” was tested, and the binding signal was 0.65 RPM ratio (pull-down/input). With “GATGATTGTTCTCCCAGCTGATGAATTGGGGACATCGAGTAAACAAATTTTCCTAATCTTTCTGTTCAAGCGCCATCTAC” the binding signal was 0.943 RPM ratio (pull-down/input). For “GATGATTGTTCTCCCAGCTGATGAATTTCTGATTTCGAGTAAACAAATTTTCCTAATCTTTCTGTTCAAGCGCCATCTAC”, the binding signal was 1.07 RPM ratio (pull-down/input). With “GATGATTGTTCTCCCAGCTGATGAATTATTTTGATCGAGTAAACAAATTTTCCTAATCTTTCTGTTCAAGCGCCATCTAC” the binding signal was 1.5 RPM ratio (pull-down/input). In the case of “GATGATTGTTCTCCCAGCTGATGAATTTCGACAGTCGAGTAAACAAATTTTCCTAATCTTTCTGTTCAAGCGCCATCTAC”, the binding signal is reported as 0.878 RPM ratio (pull-down/input).
